From the antibiotic and cytotoxicity screens of Wong et al. (2023)
This is one part of the list.

These molecules were tested on S. aureus RN4220 (assay: growth inhibition call (relative growth <= 0.2)). Conditions: 50 µM.

Growth inhibition call, inactive:
O=C1O[C@@H](c2ccccc2)[C@@H](c2ccccc2)N2[C@@H](c3ccc(O)cc3)[C@]3(C(=O)Nc4ccccc43)[C@@H](C(=O)NC[C@H](O)c3ccccc3)[C@H]12
CCn1c(-c2nonc2N)nc2cncc(C(=O)N3CC[C@H](N)C3)c21
O=C(C[C@@H]1C=C[C@@H](NS(=O)(=O)c2ccc(F)cc2)[C@H](CO)O1)NCc1ccc(Cl)c(Cl)c1
CO[C@H]1CN(C)C(=O)c2ccc(NC(=O)Nc3cccc(Cl)c3)cc2OC[C@@H](C)N(C(=O)Nc2c(C)noc2C)C[C@@H]1C
C[C@H]1CCCCO[C@@H](CN(C)S(=O)(=O)c2cccs2)[C@@H](C)CN([C@@H](C)CO)C(=O)c2cc(NC(=O)Nc3ccc(C(F)(F)F)cc3)ccc2O1
NC(=O)NCC#Cc1ccc2c(c1)[C@]1(C(=O)N2)[C@H](C(=O)N2CCCCCCC2)[C@H]2C(=O)O[C@H](c3ccccc3)[C@H](c3ccccc3)N2[C@@H]1c1ccc(O)cc1
C[C@@H]1CN([C@H](C)CO)S(=O)(=O)c2ccc(C#Cc3ccccn3)cc2O[C@H]1CN(C)Cc1ccccc1
COCC(=O)N(C)C[C@@H]1Oc2cc(C#CCC3CCCC3)ccc2S(=O)(=O)N([C@@H](C)CO)C[C@@H]1C
C[C@@H]1CN([C@@H](C)CO)C(=O)c2cccc(NC(=O)c3cnccn3)c2O[C@@H]1CN(C)S(=O)(=O)c1ccc(F)cc1
C[C@H]1CN([C@@H](C)CO)C(=O)c2cc(NS(=O)(=O)c3cn(C)cn3)ccc2O[C@@H]1CN(C)Cc1ccc2c(c1)OCO2
C[C@H](CO)N1C[C@H](C)[C@H](CN(C)C(=O)Nc2cccc3ccccc23)Oc2ccc(NC(=O)Nc3ccc(F)cc3)cc2CC1=O
COc1ccc(S(=O)(=O)Nc2cccc3c2O[C@@H](CN(C)S(=O)(=O)c2cccs2)[C@H](C)CN([C@H](C)CO)C3=O)cc1
C#CCn1c(=O)c2c(OC)ccnc2n(C)c1=O
C[C@@H]1CN([C@@H](C)CO)C(=O)c2cc(NC(=O)Nc3ccc(C(F)(F)F)cc3)ccc2O[C@H]1CN(C)Cc1ccncc1
CS(=O)(=O)Nc1ccc2c(c1)[C@H]1C[C@H](CC(=O)NCc3ccc(-c4ccccc4)cc3)O[C@@H](CO)[C@H]1O2
C[C@@H]1CN([C@H](C)CO)C(=O)c2cc(NC(=O)c3ccccc3)ccc2O[C@@H](C)CCCCO[C@H]1CN(C)S(=O)(=O)c1cccs1
C[C@H](CO)N1C[C@H](C)[C@@H](CN(C)C(=O)Cc2cccnc2)Oc2ncc(C#CCc3ccccc3)cc2C1=O
Cc1ccccc1-c1ccc2c(c1)O[C@@H](CN(C)C(=O)Nc1ccc(C(F)(F)F)cc1)[C@@H](C)CN([C@H](C)CO)S2(=O)=O
C[C@H](CO)N1C[C@H](C)[C@H](CN(C)Cc2ccc(Oc3ccccc3)cc2)Oc2ccc(NS(=O)(=O)c3ccc(Cl)cc3)cc2C1=O
Cc1noc(C)c1S(=O)(=O)Nc1ccc2c(c1)CC(=O)N([C@@H](C)CO)C[C@@H](C)[C@H](CN(C)S(=O)(=O)c1ccc(Cl)cc1)O2
COC(=O)C1=CO[C@@H](O[C@@H]2O[C@H](CO)[C@@H](O)[C@H](O)[C@H]2O)[C@H]2[C@@H]1[C@H](O)C[C@]2(C)O
C[C@H](CO)N1C[C@H](C)[C@H](CN(C)Cc2cncnc2)Oc2cc(C#CC3CCCC3)ccc2S1(=O)=O
CN(C)CC(=O)N[C@H]1CC[C@@H](CC(=O)O)O[C@H]1CO
CCS(=O)(=O)Nc1ccc2c(c1)C(=O)N(C)C[C@@H](OC)[C@H](C)CN(Cc1nccs1)[C@H](C)CO2
NC(=O)c1ccc(CN2CCOCC2)cc1
C[C@@H]1CN([C@@H](C)CO)C(=O)c2cc(NS(=O)(=O)c3cn(C)cn3)ccc2O[C@H]1CN(C)S(=O)(=O)c1ccc(F)cc1
C[C@@H]1CN([C@@H](C)CO)C(=O)c2cc(NC(=O)Nc3ccc(C(F)(F)F)cc3)ccc2O[C@@H](C)CCCCO[C@H]1CN(C)Cc1ccc(C(=O)O)cc1
C[C@H]1CN([C@@H](C)CO)C(=O)Cc2cc(NC(=O)c3ccncc3)ccc2O[C@H]1CN(C)C(=O)Nc1ccc2c(c1)OCO2
C[C@@H]1CN([C@@H](C)CO)C(=O)CCCn2cc(nn2)CO[C@H]1CN(C)C(=O)Nc1ccccc1C(F)(F)F
COc1ccc(S(=O)(=O)N(C)C[C@H]2Oc3c(NC(=O)Nc4c(C)noc4C)cccc3C(=O)N([C@H](C)CO)C[C@@H]2C)cc1
O=c1nc[nH]c2c1ncn2[C@@H]1O[C@H](CO)[C@@H](O)[C@H]1O
CN1CCN(C(=O)[C@H]2[C@H](CO)[C@H]3Cn4c(ccc(C5=CCCC5)c4=O)[C@@H]2N3S(C)(=O)=O)CC1
O=c1[nH]cc(S(=O)(=O)N2CCN(c3ccccc3F)CC2)c(=O)[nH]1
CNC[C@@H]1Oc2ccc(NS(=O)(=O)c3cn(C)cn3)cc2C(=O)N([C@@H](C)CO)C[C@@H]1C
C[C@@H]1CN([C@H](C)CO)C(=O)Cc2cc(NC(=O)C3CCCCC3)ccc2O[C@@H]1CN(C)Cc1ccc(C(=O)Nc2ccccc2N)cc1
Cc1noc(C)c1S(=O)(=O)Nc1ccc2c(c1)C(=O)N([C@H](C)CO)C[C@@H](C)[C@@H](CN(C)S(=O)(=O)c1c(C)noc1C)O2
Cn1ccc(C(=O)N2CCC3(CCOC[C@@H]3NS(C)(=O)=O)CC2)n1
C[C@H](CO)N1C[C@H](C)[C@@H](CN(C)Cc2ccc(C(=O)Nc3ccccc3N)cc2)Oc2c(NS(=O)(=O)c3cn(C)cn3)cccc2C1=O
COc1ccc(NC(=O)Nc2ccc3c(c2)C(=O)N([C@H](C)CO)C[C@H](C)[C@@H](CN(C)S(=O)(=O)c2ccc(Cl)cc2)OCCCC[C@H](C)O3)cc1
COc1cccc(NC(=O)N[C@@H]2C=C[C@H](CC(=O)N3CCN(C)CC3)O[C@@H]2CO)c1
